# In the supplement of paper PMC9334596:
# “And” between values parts separate entries of the source, which are not always exact repeats. Identical values can stand only once. Whole data set: some 5,300 compounds, median “PER2::LUC luminescence relative to vehicle control” near 0.96, cut for the highest 2% near 1.3. The list shows a part of the results.
# Test system: mPer2Luc MEF
# Experiment: PER2::LUC luminescence relative to vehicle control (fold of vehicle); higher = higher PER2::LUC reporter signal
# Conditions: 10 µM
# Summary of the method: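 Mouse embryonic fibroblasts carrying the mPer2Luc reporter were seeded at ~3000 cells per well in 384-well plates, 48 h before compounds from commercial libraries were added at 10 μM. Cells were grown in DMEM with 10% FBS at 37 °C and 5% CO2. Luminescence was read with the ONE-Glo luciferase assay system 24 h and 30 h after treatment, followed by an alamarBlue viability assay. The value is PER2::LUC luminescence as fold of vehicle control.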
Compound,PER2::LUC luminescence (time after treatment 24 h),PER2::LUC luminescence (time after treatment 30 h)
O=C1NCC(=O)N2[C@H](c3ccc4c(c3)OCO4)c3[nH]c4ccccc4c3C[C@H]12,1.02,1.07
COC(=O)[C@H]1[C@H]2C[C@H]3c4[nH]c5ccccc5c4CCN3C[C@H]2CC[C@@H]1O,0.94 and 0.903,1.05 and 0.815
C=C(C)[C@@H]1CC[C@]2(C)CC[C@]3(C)[C@H](CC[C@@H]4[C@@]5(C)CC[C@H](OC(C)=O)C(C)(C)[C@@H]5CC[C@]43C)[C@@H]12,1.02,0.98
COC(=O)C(C)(N)Cc1ccc(O)cc1 (racemic),1.07,0.857
CN1CCN(c2ccc(C(=O)Nc3cc(-c4cccc(NS(=O)(=O)c5ccccc5)c4)[nH]n3)cc2)CC1,0.63,0.549
CC(CN(C)C)CN1c2ccccc2CCc2ccccc21 (stereo not drawn),0.653,0.699
Cn1c(N2CCCCS2(=O)=O)nc(C(=O)NCc2ccc(F)cc2)c(O)c1=O,1.21,1.11
NC(=O)c1ccccc1,0.926,1.02
O=C(O)CCCCCCCC(O)C(O)CCCCCCO (stereo not drawn),0.99,0.949
COC(=O)[C@@]1(C)CCC[C@]2(C)c3ccc(O)c(C(C)C)c3CCC12 (stereo partly drawn),0.896,0.996
CC1(C)O[C@@H]2C[C@H]3[C@@H]4C[C@H](F)C5=CC(=O)C=C[C@]5(C)[C@H]4[C@@H](O)C[C@]3(C)[C@]2(C(=O)CO)O1,0.756,1.14
Cn1cnc2c(F)c(Nc3ccc(Br)cc3Cl)c(C(=O)NOCCO)cc21,0.913 and 0.678,0.82 and 0.641
Nc1nc(N)c2nc(-c3cccc(O)c3)c(-c3cccc(O)c3)nc2n1,1.09,1.04
C[C@H](CS)C(=O)N1CCC[C@H]1C(=O)O,1.08,0.774
CN(Cc1cc(Br)cc(Br)c1N)C1CCCCC1,0.918,0.763
C[C@H](Cc1ccc(O)c(O)c1)[C@@H](C)Cc1ccc(O)c(O)c1,1.02,1.14
NCCc1ccc(O)c(O)c1,0.939 and 0.903,0.914 and 0.872
O=C(/C=C/c1cccnc1)NCCCCC1CCN(C(=O)c2ccccc2)CC1,0.942 and 0.881,0.638 and 0.631
COc1c(Cl)cc2c([nH]c3cnccc32)c1NC(=O)c1cccnc1C,1.06,1.03
COc1cc(N2CCOCC2)ccc1NC(=O)c1csc(-c2cccnc2)n1,0.906,1.02
Cc1c(Nc2ncccc2C(=O)O)cccc1C(F)(F)F,0.962 and 0.968,1.06 and 1

Compound,PER2::LUC luminescence (time after treatment 24 h),PER2::LUC luminescence (time after treatment 30 h)
CC[C@H](c1ccc(O)cc1)[C@@H](CC)c1ccc(O)cc1,1.08,1.14
COc1ccc(CCO[C@@H]2CCCC[C@H]2N2CC[C@@H](O)C2)cc1OC,0.953,0.958
COc1cc(N)c(Cl)cc1C(=O)OCCN1CCCCC1,1.03,0.733
O=C(NCc1cccs1)c1cc2nc(-c3ccco3)cc(C(F)(F)Cl)n2n1,1.03,1.11
CCCNC(=O)N1N=C(c2ccc(N)cc2)c2cc3c(cc2C1C)OCO3 (stereo not drawn),1,0.864
OC[C@@H](O)CN1CCN(c2ccccc2)CC1,1.06,0.996
N#CC1(c2ccc(NC(=O)c3cccnc3NCc3ccncc3)cc2)CCCC1,0.769,0.8
CC(ONC(=O)c1cc(C(F)(F)F)cc(C(F)(F)F)c1)C(=O)Nc1ccc(Cl)cc1 (stereo not drawn),1.02,1.02
CCCCCC(O)CCCC(=O)O (stereo not drawn),0.968,0.932
CCCN(CC1CC1)c1nc(C)nc(Nc2c(Cl)cc(Cl)cc2Cl)c1Cl,0.986,1.01
CN1CCN(C(=O)c2cc3cc(Cl)ccc3[nH]2)CC1,0.966,1.03
O=C1NC(c2cccc([N+](=O)[O-])c2)=CCN1c1ccccc1O,0.797,0.848
CC(=O)OCC(=O)[C@@]1(O)CC[C@H]2[C@@H]3CCC4=CC(=O)C=C[C@]4(C)[C@H]3[C@@H](O)C[C@@]21C,0.769,1.08
C[C@]12CCC(=O)C=C1CC[C@@H]1[C@@H]2[C@@H](O)C[C@@]2(C)[C@H]1CC[C@]2(O)C(=O)COP(=O)(O)O,0.663,0.984
COc1ccc(CNc2nc(N3CCC[C@H]3CO)ncc2C(=O)NCc2ncccn2)cc1Cl,0.865,0.884
Nc1ncnc2c1ncn2C1CCCC1,1.06,0.926
COC(=O)N[C@H](C(=O)N1CC2(CC2)C[C@H]1c1nc(-c2ccc3c(c2)C(F)(F)c2cc(-c4ccc5[nH]c([C@@H]6[C@H]7CC[C@H](C7)N6C(=O)[C@@H](NC(=O)OC)C(C)C)nc5c4)ccc2-3)c[nH]1)C(C)C,0.737,0.647
CC1(C)CC2C1CCC1(C)OC1CCC2(C)O (stereo not drawn),0.987,0.902
C[C@H]1C[C@H]2[C@@H]3CCC4=CC(=O)C=C[C@]4(C)[C@H]3C(=O)C[C@]2(C)[C@@]1(O)C(=O)CO,0.908,0.982
CCC(=O)OCC(=O)[C@@]1(OC(=O)CC)[C@@H](C)C[C@H]2[C@@H]3CCC4=CC(=O)C=C[C@]4(C)[C@@]3(F)[C@@H](O)C[C@@]21C,0.454 and 0.475,1.01 and 0.98
CC1(C)O[C@@H]2C[C@H]3[C@@H]4C[C@H](F)C5=CC(=O)CC[C@]5(C)[C@H]4[C@@H](O)C[C@]3(C)[C@]2(C(=O)CO)O1,0.739,1.19

Compound,PER2::LUC luminescence (time after treatment 24 h),PER2::LUC luminescence (time after treatment 30 h)
CC1=CCc2c(cc3oc(C)cc(=O)c3c2O)OC1,1.09,1.21
Cc1ccc(S(=O)(=O)OCC(=O)Nc2ccc(C(=O)O)c(O)c2)cc1,1.1 and 1.22,1.02 and 1.24
Cc1nc(C)c(-c2ccc(C3CCC(CC(=O)O)CC3)cc2)nc1C(N)=O (stereo not drawn),1.05,0.986
O=C(O)CCCN1CCC(O[C@@H](c2ccc(Cl)cc2)c2ccccn2)CC1,1.02,1.04
O=C(Nc1ncc(SCCN2CCCC2)s1)[C@]1(c2ccc(S(=O)(=O)C3CC3)cc2)C[C@H]1C1CCCCC1,0.768,0.883
CCOC(=O)CNC(=O)[C@@H]1CCCN1C(=O)Cc1ccccc1,1.03,0.963
CN(C(=O)CCCOc1ccc2[nH]c(=O)ccc2c1)C1CCCCC1,0.958,0.997
NNC(=O)c1ccncc1,0.977,0.911
COc1ccc(/C=C/c2cc(O)cc(O[C@@H]3O[C@H](CO)[C@@H](O)[C@H](O)[C@H]3O)c2)cc1O,1.21,1.22
COc1ccc(-c2ccc3cc(C(=O)O)ccc3c2)cc1C12CC3CC(CC(C3)C1)C2,1.49,1.86
CCN1CCCC1CNC(=O)c1cc(S(N)(=O)=O)ccc1OC (stereo not drawn),0.878,0.849
Nc1cc(C(F)(F)F)c(-c2nc(N3CCOCC3)nc(N3CCOCC3)n2)cn1,0.401,0.317
COc1cc2c(NC3CCN(CC4CCCCC4)CC3)nc(N3CCCN(C(C)C)CC3)nc2cc1OCCCN1CCCCC1,0.625,0.772
O=C(O)c1cc2cc(F)ccc2[nH]1,1.06,1.02
CCCCc1oc2ccccc2c1C(=O)c1cc(I)c(OCCN(CC)CC)c(I)c1,0.468,0.632
Cc1cc(=O)c(C(=O)N[C@@H](C(=O)N[C@@H]2C(=O)N3C(C(=O)O)=C(CSc4nnnn4C)CS[C@H]23)c2ccc(O)cc2)c[nH]1,1.07,1.1
O=C(O)c1cccnc1,0.962 and 1.13,0.879 and 1.14
C=CCNC1=C2C[C@@H](C)C[C@H](OC)[C@H](O)[C@@H](C)/C=C(\C)[C@H](OC(N)=O)[C@@H](OC)/C=C\C=C(/C)C(=O)NC(=CC1=O)C2=O,0.091,0.069
N[C@@H](COP(=O)(O)O)C(=O)O,0.986 and 1.01 and 0.908,0.937 and 0.899 and 0.846
Cc1cccc(N(C)C(=S)Oc2ccc3ccccc3c2)c1,1.01,1.15
O=c1cccc2ccc(O)c(O)c2c1O,0.987,0.83

Compound,PER2::LUC luminescence (time after treatment 24 h),PER2::LUC luminescence (time after treatment 30 h)
O=c1[nH]c(=O)n([C@H]2C[C@H](O)[C@@H](CO)O2)cc1I,1.08 and 1.11,0.942 and 1.28
CN1CCN(c2ccc3nc(-c4c(N)c5c(F)cccc5[nH]c4=O)[nH]c3c2)CC1,0.747,0.378
Cc1cccc(-c2nn3c(c2-c2ccnc4ccc(C(N)=O)cc24)CCC3)n1,0.938 and 0.81,1.09 and 0.728
Nc1ccc(S(=O)(=O)O)cc1.Nc1ccc(S(=O)(=O)O)cc1.[Zn],0.883,0.861
C#C[C@]1(O)CC[C@H]2[C@@H]3CCC4=Cc5oncc5C[C@]4(C)[C@H]3CC[C@@]21C,0.977,0.87
CC(C)c1nc(CN(C)C(=O)N[C@@H](CCN2CCOCC2)C(=O)N[C@H](CC[C@H](Cc2ccccc2)NC(=O)OCc2cncs2)Cc2ccccc2)cs1,0.564,0.836
CCOc1ccc(Cc2nccc3cc(OCC)c(OCC)cc23)cc1OCC,0.359,0.405
Cc1cc(C)nc(NS(=O)(=O)c2ccc(NC(=S)NC(=O)COc3ccc(Br)cc3Cl)cc2)n1,1.01,1.06
O=C(Nc1cccnc1)N1CCC(Cc2cccc(Oc3ccc(C(F)(F)F)cn3)c2)CC1,0.968,0.952
O=C(Nc1ccc([N+](=O)[O-])cc1Cl)c1cc(Cl)ccc1O,0.716,0.699
CC(C)=CCc1c(O)cc2oc(C)cc(=O)c2c1O,1.05,1.12
CCOC(=O)C1=Cc2ccc(C(F)(F)C(F)(F)F)cc2N=C(N)C1,1.07,1.05
Cc1[nH]c(/C=C2\C(=O)Nc3ccc(F)cc32)c(C)c1C(=O)NCCN1CCCC1,0.753,0.817
CCc1c(C(=O)NNC(=O)C(O)c2cc(F)cc(F)c2)ccc(O)c1C (stereo not drawn),0.99,0.823
N[C@@H](Cc1cc(I)c(O)c(I)c1)C(=O)O,1.01,0.972
CN1C(C(=O)Nc2ccccn2)=C(O)c2sc(Cl)cc2S1(=O)=O,0.776,0.823
CC12CC3CC(C)(C1)CC(N)(C3)C2,0.813,0.886
O=C(O)c1ccc(C=C2SC(=S)N(c3cccc(C(F)(F)F)c3)C2=O)cc1,1.11 and 1.07,1.01
COc1ccc(-c2cc(=O)c3c(OC)c(OC)c(OC)c(OC)c3o2)cc1,0.944,1.03
COc1ccc(SCCc2ccncc2)cc1,0.951,1.05
CC/C=C\C/C=C\C/C=C\C/C=C\C/C=C\C/C=C\CCC(=O)O,1.04 and 1.08,1.07 and 0.954 and 0.736
